According to PubChem BioAssay AID493208 (National Center for Advancing Translational Sciences (NCATS), 2011):
About 340 (0.77%) of roughly 44,000 compounds were called active. Another 5% or so got no clear call; they are omitted. Calls come from the whole dose curve; as a rule, active = well fitted inhibition curve with a large enough effect; inconclusive = small, poorly fitted or top-dose-only effect; inactive = flat fitted curve, though single readings scatter. The list shows a part of the results.

experiment: Acumen qHTS Assay for Inhibitors of the mTORC1 Signaling Pathway in MEF (Tsc2-/-, p53-/-) Cells: Sytravon; details: phospho-rpS6 immunofluorescence/PI, 24 h; series mostly up to 38.3 µM; activity change, negative = inhibition: at the top concentration;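 note: plate controls were DMSO for no effect and rapamycin for full effect; nearly all actives have a fitted effect of over 50% in size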
Summary of the method: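 Immunofluorescence of rpS6 phosphorylation in Tsc2-/-, p53-/- MEFs after 24 h compound exposure, normalized to propidium iodide signal. Activity is expressed as % positive cells, thresholded with 7.5 nM rapamycin.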

Structure (SMILES) | activity change, negative = inhibition
Cc1cc2oc(C(=O)Nc3ccc(S(=O)(=O)N4CCCCCC4)cc3)cc(=O)c2cc1C | inactive: -6.02%
CCN(CC)c1ccc(NS(=O)(=O)c2cc3[nH]c(=O)c(=O)[nH]c3cc2C)c(C)c1 | inactive: -6.1%
CCN(CC)c1ccc(NC(=O)CSc2nc(-c3cccs3)cc(C(F)(F)F)n2)cc1 | inactive: -13.7%
Cc1ccc(NC(=O)Nc2nnc(N(C)Cc3ccccc3)s2)c(C)c1 | inactive: -9.54%
CCOc1ccc(-n2nc3ccc(NC(=O)COc4ccc(OC)cc4)cc3n2)cc1 | inactive: 3.71%
COC(=O)c1ccc(C2C(C(=O)Nc3ccccc3)=C(C)Nc3nc4ccccc4n32)cc1 (configuration not stated) | inactive: 0.117%
CC(=O)N1CCc2c(sc3nc(SCC(C)C)n(-c4ccc(F)c(Cl)c4)c(=O)c23)C1 | inactive: -26.7%
CCCSc1ncc(Cl)c(C(=O)Nc2c(C(=O)Nc3ccc(C)cc3)oc3ccccc23)n1 | inactive: 1.72%
COc1cc(C)cc2oc(=O)c(CC(=O)NCc3cccc(Cl)c3)c(C)c12 | inactive: 6.69%
CCc1nc(Oc2cccc(F)c2)c2oc3ccccc3c2n1 | inactive: 3.51%
CCN(CC)c1ccc(-c2nc(-c3ccccc3C)no2)cc1[N+](=O)[O-] | inactive: -1.39%
CC1=C(C(=O)Nc2ccccc2)C(c2cccn2C)n2ncnc2N1 (configuration not stated) | inactive: 2.09%
Cc1ccc(C)c(Cn2c(C3CC(=O)N(c4ccccc4C)C3)nc3ccccc32)c1 (configuration not stated) | inactive: -10.8%
Cc1ccc(Nc2nc(C)nc(N)c2S(=O)(=O)c2ccccc2)cc1 | inactive: -0.783%
COc1ccc(Cn2c(=O)c3oc4ccccc4c3n(CC(=O)Nc3ccc(F)cc3F)c2=O)cc1 | inactive: -2.33%
O=C(NCCc1ccccc1Cl)c1ccc2c(c1)nc1n2CCCCC1 | inactive: 0.179%
Cc1cc(NC(=O)C2CCN(S(=O)(=O)c3ccc(Br)s3)CC2)ccc1Br | inactive: -0.822%
Cc1ccc(Cl)cc1N1CCN(Cc2nnc(-c3ccc4c(c3)OCO4)o2)CC1 | inactive: -3.7%
Cc1ccc(CNC(=O)CSc2n[nH]c(-c3ccc(F)cc3)n2)cc1 | inactive: -10.2%
O=S(=O)(c1ccc2nc(N3CCN(c4cccc(Cl)c4)CC3)ccc2c1)N1CCCCC1 | inactive: 2.85%
Cc1ccc2c(=O)cc(C(=O)Nc3sc4c(c3C(=O)NCc3cccnc3)CCCC4)oc2c1C | inactive: -6.18%
Fc1ccc(-c2noc3ncnc(NCCCN4CCN(c5ccccc5)CC4)c23)cc1 | inactive: -6.99%
O=c1oc2c(CN3CCN(CCO)CC3)c(O)ccc2cc1-c1ccccc1 | inactive: 8.33%
COc1ccc(Cn2ccc3nc(C)c(C(=O)NCc4ccc(F)cc4)cc3c2=O)cc1 | inactive: -20.3%
COc1cccc(NC(=O)CC2NCCNC2=O)c1 (configuration not stated) | inactive: 0.545%
COc1ccc(C(=O)NCC(c2ccc(N(C)C)cc2)N2CCc3ccccc32)c(OC)c1 (configuration not stated) | inactive: 0%
CCc1cc(C(=O)Nc2cnn(Cc3ccccc3C)c2)no1 | inactive: 5.68%
